Assay results reported in patent US20250129160A1 (Amgen, published 2025).
Ends that are not written are not given here.

T1: CCR8 P_13-24 peptide construct (human, not fully specified (C-terminus); also: BAP biotinylated in vivo, fused construct pieces' sequences not given here)
T1 construct: coupled to streptavidin beads; not shown: G4S linker, V5 tag, G4S linker, chicken albumin, then FLAG tag, BAP and H3G each via SG linker
T1 chain: TDYYYPDIFSSP

T2: cynomolgus monkey CCR8 (T4R), Mauritian origin (cynomolgus monkey, UniProt O97665 1-356 (rhesus entry))
T2 construct: also called cy CCR8 (T4R); Cy CCR8 (T4R)
T2 chain: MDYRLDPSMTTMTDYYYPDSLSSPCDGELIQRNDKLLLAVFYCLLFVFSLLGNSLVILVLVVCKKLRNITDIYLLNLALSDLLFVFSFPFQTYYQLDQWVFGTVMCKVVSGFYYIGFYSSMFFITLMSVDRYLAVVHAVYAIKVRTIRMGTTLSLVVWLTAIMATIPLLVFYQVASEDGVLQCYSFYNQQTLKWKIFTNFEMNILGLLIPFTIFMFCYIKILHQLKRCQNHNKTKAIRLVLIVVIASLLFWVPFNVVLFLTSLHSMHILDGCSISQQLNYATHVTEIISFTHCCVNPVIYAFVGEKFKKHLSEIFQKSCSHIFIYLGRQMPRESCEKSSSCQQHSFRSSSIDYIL

T3: CCR8 P_1-12 peptide construct (human, not fully specified (C-terminus); also: BAP biotinylated in vivo, fused construct pieces' sequences not given here)
T3 construct: coupled to streptavidin beads; not shown: G4S linker, V5 tag, G4S linker, chicken albumin, then FLAG tag, BAP and H3G each via SG linker
T3 chain: MDYTLDLSVTTV

T4: CCR8 P_19-30 peptide construct (human, not fully specified (C-terminus); also: BAP biotinylated in vivo, fused construct pieces' sequences not given here)
T4 construct: coupled to streptavidin beads; not shown: G4S linker, V5 tag, G4S linker, chicken albumin, then FLAG tag, BAP and H3G each via SG linker
T4 chain: DIFSSPCDAELI

T5: CCR8 P_25-35 peptide construct (human, not fully specified (C-terminus); also: BAP biotinylated in vivo, fused construct pieces' sequences not given here)
T5 construct: coupled to streptavidin beads; not shown: G4S linker, V5 tag, G4S linker, chicken albumin, then FLAG tag, BAP and H3G each via SG linker
T5 chain: CDAELIQTNGK

T6: CCR8 P_7-18 peptide construct (human, not fully specified (C-terminus); also: BAP biotinylated in vivo, fused construct pieces' sequences not given here)
T6 construct: coupled to streptavidin beads; not shown: G4S linker, V5 tag, G4S linker, chicken albumin, then FLAG tag, BAP and H3G each via SG linker
T6 chain: LSVTTVTDYYYP


Tests used:
[1] = target: T1, CCR8 P_13-24 peptide construct; test: flow cytometry, peptide construct on streptavidin beads
[2] = target: T7, human CCR8 (human, UniProt P51685 1-355); test: cell-based or functional assay
[3] = target: T8, cynomolgus monkey CCR8 (Chinese origin) (cynomolgus monkey, UniProt O97665 1-356 (rhesus entry)); test: flow cytometry, CHO cells expressing cynomolgus CCR8
T8 construct: on transfected CHO cells; also called cyno CCR8; Cy CCR8

[4] = target: T2, cynomolgus monkey CCR8 (T4R), Mauritian …; test: cyno (T4R) Kd divided by human Kd
[5] = target: T8, cynomolgus monkey CCR8 (Chinese origin); test: cyno Kd divided by human Kd
[6] = target: T2, cynomolgus monkey CCR8 (T4R), Mauritian …; test: flow cytometry, CHO cells expressing cynomolgus CCR8 (T4R)
[7] = target: T7, human CCR8; test: flow cytometry, HuT 78 CD3E-knockout cells, competitor CCL1 200 nM
[8] = target: T7, human CCR8; test: flow cytometry, HuT 78 CD3E-knockout cells, 100 nM TCE after 200 nM CCL1 (competitor)
[9] = target: T7, human CCR8; test: flow cytometry, CHO cells expressing human CCR8
[10] = target: T9, CCR8 P_1-35 peptide construct (full-length N-terminal peptide of human CCR8) (human, BAP biotinylated in vivo); test: flow cytometry, peptide construct on streptavidin beads, 5 µg/mL
T9 construct: from HEK 293 supernatant, coupled to streptavidin beads; not shown: G4S linker, V5 tag, G4S linker, chicken albumin, then FLAG tag, BAP and H3G each via SG linker

[11] = target: T1, CCR8 P_13-24 peptide construct; test: as above
[12] = target: T3, CCR8 P_1-12 peptide construct; test: as above
[13] = target: T4, CCR8 P_19-30 peptide construct; test: as above
[14] = target: T5, CCR8 P_25-35 peptide construct; test: as above
[15] = target: T6, CCR8 P_7-18 peptide construct; test: as above
[16] = target: T7, human CCR8; test: flow cytometry, HuT 78 CD3E-knockout cells, 100 nM TCE, no CCL1

binding result [1]	Kd [3]	Affinity gap Kdcy (T4R)/Kdhu CCR8 [4]	Affinity gap Kdcy/Kdhu CCR8 [5]	Kd [6]	Ratio Average Median PE (+CCL1)/Average (-CCL1) [7]	Average Median PE, CCL1-treated (+CCL1) [8]	Kd [9]	Median Fluorescence of Sample/Median Fluorescence of Negative Control [10]	Median Fluorescence of Sample/Median Fluorescence of Negative Control [11]	Median Fluorescence of Sample/Median Fluorescence of Negative Control [12]	Median Fluorescence of Sample/Median Fluorescence of Negative Control [13]	Median Fluorescence of Sample/Median Fluorescence of Negative Control [14]	Median Fluorescence of Sample/Median Fluorescence of Negative Control [15]	Average Median PE, CCL1-untreated (-CCL1) [16]	Binder	EC50, 48-hour FACS based cytotoxicity assay, HUT-78 (CD3+) [2]
no binding (tested: 5 µg/mL)	2 nM	194 ratio	2.08 ratio	186 nM	1 ratio	23100 median PE	0.96 nM	382 ratio	1.1 ratio	306 ratio	1.1 ratio	1 ratio	1 ratio	23200 median PE	CCR8 TCE1 scFv CC × I2E × scFc (bispecific antibody, single chain; also called CCR8 TCE1 scFv × I2E × scFc; TCE1 scFv (CCR8) x scFv (CD3) x scFc) EVQLVESGGGLVKPGGSLRLSCAASGFTFSNARMGWVRQAPGKCLEWVGRIKSKTEGGTRDYAAPVKGRFTISRDDSKNTLYLQMNSLKTEDTAVYYCTSYSGVWGQGTMVTVSSGGGGQGGGGQGGGGQEIVMTQSPDSLAVSLGERATINCKSSQSVLYSSNNKNYLAWYHQKPGQSPKLLISWASTRESGVPDRFSGSGSGTDFTLTINSLQAEDVAVYYCQQYYSIPITFGCGTKVEIKSGGGGQEVQLVESGGGLVQPGGSLKLSCAASGFTFNKYAINWVRQAPGKGLEWVARIRSKYNNYATYYADAVKDRFTISRDDSKNTVYLQMNNLKTEDTAVYYCARAGNFGSSYISYWAYWGQGTLVTVSSGGGGQGGGGQGGGGQQTVVTQEPSLTVSPGGTVTIT[about 80 residues not given here]FGSGTKLTVLGGGGCPPCPAPELLGGPSVFLFPPKPKDTLMISRTPEVTCVVVDVSHEEPEVKFNWYVDGVEVHNAKTKPCEEQYGSTYRCVSVLTVLHQDWLNGKEYKCKVSNKALPAPIEKTISKAKGQPREPQVYTLPPSREEMTKNQVSLTCLVKGFYPSDIAVEWESNGQPENNYKTTPPVLDSDGSFFLYSKLTVDKSRWQQGNVFSCSVMHEALHNHYTQKSLSLSPGKGGGGQGGGGQGGGGQGGGGQGGGGQGGGGQCPPCPAPELLGGPSVFLFPPKPKDTLMISRTPEVTCVVVDVSHEEPEVKFNWYVDGVEVHNAKTKPCEEQYGSTYRCVSVLTVLHQDWLNGKEYKCKVSNKALPAPIEKTISKAKGQPREPQVYTLPPSREEMTKNQVSLTCLVKGFYPSDIAVEWESNGQPENNYKTTPPVLDSDGSFFLYSKLTVDKSRWQQGNVFSCSVMHEALHNHYTQKSLSLSPGK	0.0582 nM
	796 nM	8.06 ratio	23.9 ratio	268 nM			33.2 nM	843 ratio	746 ratio	1 ratio	1.1 ratio	1.1 ratio	1 ratio		CCR8 TCE4 scFv CC × I2E × scFc (bispecific antibody, single chain; also called CCR8 TCE4 scFv × I2E × scFc; TCE4 CCR8 scFv (CCR8) x scFv (CD3) TCE x scFc) QVQLVESGGGVVQPGRSLRLSCAASGFTFSSYGMHWVRQAPGKCLEWVAVISYDGSNKYYADSVKGRFTISRDNSKNTLYLQMNSLRAEDTAVYYCARGRYFDWFLFDYWGQGTLVTVSSGGGGQGGGGQGGGGQDTVMTQTPLSLSVTPGQPASISCKSSQSLLHSDGKTYLFWYLQKPGQPPQLLISEVSNRFSGVPDRFSGSGSGTDFTLKISRVEAEDVGFYYCMQSLRLPLTFGCGTKVEIKSGGGGQEVQLVESGGGLVQPGGSLKLSCAASGFTFNKYAINWVRQAPGKGLEWVARIRSKYNNYATYYADAVKDRFTISRDDSKNTVYLQMNNLKTEDTAVYYCARAGNFGSSYISYWAYWGQGTLVTVSSGGGGQGGGGQGGGGQQTVVTQEPSLTVSPGGTVTIT[about 80 residues not given here]FGSGTKLTVLGGGGCPPCPAPELLGGPSVFLFPPKPKDTLMISRTPEVTCVVVDVSHEEPEVKFNWYVDGVEVHNAKTKPCEEQYGSTYRCVSVLTVLHQDWLNGKEYKCKVSNKALPAPIEKTISKAKGQPREPQVYTLPPSREEMTKNQVSLTCLVKGFYPSDIAVEWESNGQPENNYKTTPPVLDSDGSFFLYSKLTVDKSRWQQGNVFSCSVMHEALHNHYTQKSLSLSPGKGGGGQGGGGQGGGGQGGGGQGGGGQGGGGQCPPCPAPELLGGPSVFLFPPKPKDTLMISRTPEVTCVVVDVSHEEPEVKFNWYVDGVEVHNAKTKPCEEQYGSTYRCVSVLTVLHQDWLNGKEYKCKVSNKALPAPIEKTISKAKGQPREPQVYTLPPSREEMTKNQVSLTCLVKGFYPSDIAVEWESNGQPENNYKTTPPVLDSDGSFFLYSKLTVDKSRWQQGNVFSCSVMHEALHNHYTQKSLSLSPGK	0.265 nM
	705 nM	20.7 ratio	103 ratio	142 nM			6.86 nM	1270 ratio	1040 ratio	1.1 ratio	1.1 ratio	1.1 ratio	1 ratio		CCR8 TCE3 scFv CC × I2E × scFc (bispecific antibody, single chain; also called CCR8 TCE3 scFv × I2E × scFc; TCE3 scFv (CCR8) x scFv (CD3) x scFc) QVQLVESGGGVVQPGRSLRLSCEASGFTFSSYVMHWVRQAPGKCLEWVSVISYDGSSQYYTDSVKGRFTISRDNSKNTLNLQMNSLRAEDTAVYYCVRGRLATAILFDYWGQGTLVTVSSGGGGQGGGGQGGGGQEILMTQTPLSLSVTPGQPASISCKSSQSLLYSDGKTYLFWYLQRPGQPPQLLIYEVSNRFSGVPDRFSGSGSGTDFTLKISRVEAEDVGIYYCMQSIKLPLTFGCGTKVEIKSGGGGQEVQLVESGGGLVQPGGSLKLSCAASGFTFNKYAINWVRQAPGKGLEWVARIRSKYNNYATYYADAVKDRFTISRDDSKNTVYLQMNNLKTEDTAVYYCARAGNFGSSYISYWAYWGQGTLVTVSSGGGGQGGGGQGGGGQQTVVTQEPSLTVSPGGTVTIT[about 80 residues not given here]FGSGTKLTVLGGGGCPPCPAPELLGGPSVFLFPPKPKDTLMISRTPEVTCVVVDVSHEEPEVKFNWYVDGVEVHNAKTKPCEEQYGSTYRCVSVLTVLHQDWLNGKEYKCKVSNKALPAPIEKTISKAKGQPREPQVYTLPPSREEMTKNQVSLTCLVKGFYPSDIAVEWESNGQPENNYKTTPPVLDSDGSFFLYSKLTVDKSRWQQGNVFSCSVMHEALHNHYTQKSLSLSPGKGGGGQGGGGQGGGGQGGGGQGGGGQGGGGQCPPCPAPELLGGPSVFLFPPKPKDTLMISRTPEVTCVVVDVSHEEPEVKFNWYVDGVEVHNAKTKPCEEQYGSTYRCVSVLTVLHQDWLNGKEYKCKVSNKALPAPIEKTISKAKGQPREPQVYTLPPSREEMTKNQVSLTCLVKGFYPSDIAVEWESNGQPENNYKTTPPVLDSDGSFFLYSKLTVDKSRWQQGNVFSCSVMHEALHNHYTQKSLSLSPGK	28.1 nM
